Here are results for eight molecules from the supplement of paper PMC12632987.

The labels stand for the following.
B1: LC3A_28_850 (protein)
chain: SALDEQLAANLEKVKAAAAKGEEVTVTITVTSTTTLEDAKRIAAGMEEIVEAGKDLPRLTIIVDATEPIAQEVLTLLADTGDRLEEKYPNVTVIIALPEE
B2: LC3A_free_2_2168 (protein)
chain: ARYKVTVDVLGHAAGVAALFDVLAEAGLEVTVTYEDGTVERGSAAEHAARMRELAARGETVLVTIEFETDKATAEAVAAALDEVAERTGVAALIDIEKIA
B3: LC3A_127_221 (protein)
chain: MLEELLKLAEEAAELAREAIEDPSLDKLETLEKIEKLLEEALKLAKEAGVPEEVIEDIKQAIKLAEEAKKKSPEEQLETLRQLELLADGIAIELESLILK
B4: LC3A_free_0_2101 (protein)
chain: KTVVIEVVAISKEKISEEKLKKLKEKLKELAEKISEKYNAEVEVEIKEVDGRTVVTIKVKLEGMSIEEALEIADEIADEVEKIFKELGIEATIYVSVYEE
B5: LC3A_28_1169 (protein)
chain: SETEENAEKALKEAEEAKAKGEPAVITISLPSGATEEEVELVIETMEKIAELLKDIPGAAIIVDVDSGVKEEHLNKIMDKAEEIEEKYPNVSVIIALDED
B6: LC3A_28_711 (protein)
chain: GEIEANIAAALAEAEAAAAAGEEVVVTIKVPGTATEEDIEKVIAALERIAEILKDLKSAAIVVDVDGKVPQEYIDKLADAAEEIEKKYPNVTVIIALEES
B7: LC3A_23_600 (protein)
chain: MVTVEADHVVKNDPELAEEKTKKLLEEIKKILEKNKDYIKDYKIEVEFYTDEDGNTVVRITVTVKVKDDPEKAQEIANELISAFDEILPDAVIAYDVEED
B8: LC3A_28_715 (protein)
chain: SELEKSIEEALEKAKKAAEEGEEAVITIKVKGKATEEETEKVIEAIEEIAKITKDLKSTSIIVDIDGEVPQEHINKIMDKGEEVEKKYPNVTVIFALDEE

In all, about 2,300 sequences were measured (“median log2 fold change of GCK-ALFA target abundance (FLAG IP / Myc IP barcode read proportion)”: median about 0.095, lowest 2% from about -0.47 on). The list shows a part of the results.

For the experiment, the target named is MAP1LC3A, Q9H492. Nature of the experiment: median log2 fold change of GCK-ALFA target abundance (FLAG IP / Myc IP barcode read proportion) (log2 ratio); each designed protein is fused to an ALFA-tag nanobody in HEK293 cells to bring the named protein to FLAG-tagged glucokinase (GCK); Myc marks an untargeted standard; higher = target protein stabilised (more abundant). As to conditions: target protein: 3xFLAG-MCP-GCK-ALFA reporter; HEK293 landing pad (RPLP). The procedure, abridged:
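HEK293 landing-pad cells received a recombined binder library fused to the ALFA nanobody and were induced with 2 μg mL^−1 doxycycline, then transfected with a plasmid encoding a FLAG-tagged target and a Myc-tagged standard. Lysates were collected after 48 h for anti-FLAG and anti-Myc immunoprecipitation, and the circular RNA barcodes were reverse transcribed, amplified and sequenced. Target abundance for each binder is the median log2 ratio of FLAG to Myc barcode read proportions. Barcodes had to reach a proportion of at least 10^−7 in both replicates, each binder needed at least 3 barcodes per replicate, a pseudocount of 10^−6 was applied, and the two replicates were pooled.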
Consider B1, for which the “median log2 fold change” value was determined as 0.226.
Then B2, with 0.0505.
With B3, the “median log2 fold change” value came to 0.0664.
Consider B4, for which the “median log2 fold change” value was found to be 0.108.
Then B5, with -0.195.
Next, B6: 0.11; B7: -0.566; B8: 0.128.
